# Source: PubChem BioAssay AID485294 (National Center for Advancing Translational Sciences (NCATS), 2010)
# Out of some 370,000 compounds screened, about 150 (0.041%) were called active. Inconclusive results, whose numbers are uncertain, are shown with a selection of clear calls. Calls come from the whole dose curve; as a rule, active = well fitted inhibition curve with a large enough effect; inconclusive = small, poorly fitted or top-dose-only effect; inactive = flat fitted curve, though single readings scatter. No potency is given beside an inconclusive call; the fits are too rough.
# Target: Beta-lactamase (Escherichia coli (strain K12)) (UniProt P00811)
# UniProt P00811, sequence (P00811 whole entry, looked up): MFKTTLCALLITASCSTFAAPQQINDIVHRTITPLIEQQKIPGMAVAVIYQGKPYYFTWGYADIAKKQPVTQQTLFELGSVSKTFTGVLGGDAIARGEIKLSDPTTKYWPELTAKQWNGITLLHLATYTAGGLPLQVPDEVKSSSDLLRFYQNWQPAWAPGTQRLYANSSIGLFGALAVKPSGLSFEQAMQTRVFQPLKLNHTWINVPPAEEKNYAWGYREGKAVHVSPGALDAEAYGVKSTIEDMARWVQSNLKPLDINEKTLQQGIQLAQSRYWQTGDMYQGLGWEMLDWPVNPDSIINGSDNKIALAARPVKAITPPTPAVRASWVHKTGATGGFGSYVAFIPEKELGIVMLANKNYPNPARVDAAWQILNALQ
# Test: qHTS Inhibitors of AmpC Beta-Lactamase (assay with detergent); note: nearly all actives have a fitted effect of over 25% in size
# Details: AmpC hydrolysis of nitrocefin, absorbance 480 nm, 0.01% Triton; series mostly up to 114 µM
# Summary of the method: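 20 mM phosphate pH 7.0 + 0.01% (detergent screen) or 0.0001% Triton X-100; 5.3 nM AmpC reagent; cpd preinc 15 min RT; nitrocefin (800 uM stock) to start; A480 q20 s × 4 min; Activity was normalised to no-enzyme and no-compound control wells.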
# Potency is the fitted concentration of half-maximal effect; tags give direction and shape of the fitted curve.
row,Compound,Potency
1,CCc1nnc(SCC(=O)NC2CCCC2)nc1CC,"inconclusive [inhibitor, partial curve, poor fit]"
2,CCn1c(SCC(=O)NC2=NCCS2)nnc1C(C)NC(=O)c1ccccc1F (stereo unspecified),"inconclusive [inhibitor, partial curve, poor fit]"
3,O=C(c1ccc(Cl)c([N+](=O)[O-])c1)N1CCCc2ccccc21,"inconclusive [inhibitor, full curve, poor fit]"
4,FC(F)(F)c1ccc(N2CCN(c3ncnc4c3nnn4Cc3ccccc3)CC2)nc1,"inconclusive [inhibitor, full curve, poor fit]"
5,COc1ccc(S(=O)(=O)Nc2cc3c4c(c2)CCN4C(=O)CC3)cc1C,"inconclusive [inhibitor, full curve]"
6,C=CCOn1c(=O)c(C)[n+]([O-])c2ccccc21,"inconclusive [inhibitor, partial curve, poor fit]"
7,Cc1cccc(OCCSc2nc3ccc(NC(=O)COc4ccccc4)cc3s2)c1,"inconclusive [inhibitor, single point]"
8,COc1ccc(-c2cc(=O)oc3c(C)c(OCC(=O)N[C@@H](Cc4ccc(O)cc4)C(=O)O)ccc23)cc1,"inconclusive [inhibitor, partial curve]"
9,O=C(NCc1ccccn1)/C(=C/c1ccco1)NC(=O)c1ccccc1,"inconclusive [inhibitor, full curve, poor fit]"
10,CCCN1CCc2nc(N3CCN(c4ncccn4)CC3)ncc2C1,inactive
11,COC(=O)c1c(NC(=O)Cn2nc(C(F)F)cc2C(F)F)sc(C)c1C,"inconclusive [inhibitor, full curve, poor fit]"
12,CCCCCCCCCCCNC(=O)c1ccoc1C,"inconclusive [inhibitor, partial curve, poor fit]"
13,N#C/C(=C/c1cccc([N+](=O)[O-])c1)C(=O)Nc1ccccc1O,inactive
14,O=c1[nH]cc(NCCNc2ncc(C(F)(F)F)cc2Cl)c(=O)[nH]1,"inconclusive [inhibitor, full curve, poor fit]"
15,CC(C)(C)SC(=O)C[C@@H]1NS(=O)(=O)OC2CCCCC21 (stereo partly specified),"inconclusive [inhibitor, full curve, poor fit]"
16,NS(=O)(=O)c1ccc(CCN=Cc2ccccc2O)cc1,"inconclusive [inhibitor, single point]"
17,N#CCCn1c(C2CCCCC2)nc2ccccc21,"inconclusive [inhibitor, full curve, poor fit]"
18,CC1CCC(C(C)C)C(OCC(O)C[N+]2(C)CCCCC2)C1 (stereo unspecified),inactive
19,COc1ccccc1C(c1nnnn1Cc1ccco1)N1CCN(c2cccc(C)c2C)CC1 (stereo unspecified),inactive
20,O=C(COC(=O)c1c(Cl)cccc1Cl)Nc1cccc(S(=O)(=O)NC2=NCCCCC2)c1,"inconclusive [inhibitor, full curve, poor fit]"
21,CCCCNC(=O)CN1CCN(Cc2ccc3cc(OC)ccc3c2)CC1,"inconclusive [inhibitor, partial curve, poor fit]"

row,Compound,Potency
1,Cn1cc(SCC(=O)Nc2ccc3c(c2)OCCO3)c2ccccc21,"inconclusive [inhibitor, full curve, poor fit]"
2,CCOC(=O)NC1(C(F)(F)F)C(=O)N(Cc2ccccc2)C2=C1C(=O)CC(C)(C)C2 (stereo unspecified),"inconclusive [inhibitor, partial curve, poor fit]"
3,N#Cc1cc(NCC2CCCO2)c([N+](=O)[O-])cc1C#N (stereo unspecified),inactive
4,CC1=C(C(=O)Nc2ccccc2)C(c2ccc(C)o2)N2C(=O)CSC2=N1 (stereo unspecified),"inconclusive [inhibitor, full curve, poor fit]"
5,COC(=O)C(O)(CC(=O)Nc1ccc(C)c(F)c1)C(F)(F)F (stereo unspecified),"inconclusive [inhibitor, full curve]"
6,Cc1csc(NC(=O)C2CCCO2)n1 (stereo unspecified),"inconclusive [inhibitor, full curve, poor fit]"
7,CCN(CC)CCNC(=O)c1ccc(Cl)c(S(=O)(=O)N2CCCCCC2)c1,"inconclusive [inhibitor, full curve, poor fit]"
8,CCOc1ccc(-n2c(-c3ccccc3)c[nH]c2=S)cc1,"inconclusive [inhibitor, partial curve]"
9,COc1ccccc1NC(=O)c1ccc(NC(=O)CSc2ncn[nH]2)cc1,"inconclusive [inhibitor, single point]"
10,CCOC(=O)C1=C(N)OC2=C(C(=O)CCC2)C1c1cccnc1 (stereo unspecified),"inconclusive [inhibitor, full curve, poor fit]"
11,CCCCCCSc1nsc(NC(C)=O)n1,"inconclusive [inhibitor, full curve, poor fit]"
12,CN(CC(=O)Nc1ccccc1Cl)C(=O)COC(=O)/C=C/c1cccc(C(F)(F)F)c1,"inconclusive [inhibitor, full curve, poor fit]"
13,COc1ccc2c(CNC3CCCCCC3)c(C(=O)O)n(Cc3cccc(F)c3)c2c1,"inconclusive [inhibitor, single point]"
14,Cc1ccc(C(=O)OCc2cn3ccccc3n2)cc1,inactive
15,COCCSc1nnc(-c2cccc(C#N)c2)n1C,"inconclusive [inhibitor, full curve, poor fit]"
16,Cc1cc(C)cc(NC(=O)CSc2nnc(-c3cc4occc4n3C)n2-c2ccccc2C)c1,inactive
17,O=c1ccc(-c2ccccc2)nn1Cc1ccc(F)cc1,inactive
18,O=C(NNC(=S)Nc1ccc(Cl)c(Cl)c1)c1cccc([N+](=O)[O-])c1,inactive
19,Cc1c(-c2ccccc2)nc2ccccc2c1C(=O)NCc1cccs1,"inconclusive [inhibitor, partial curve, poor fit]"
20,CC(O)CNc1nc2c(c(=O)n(Cc3cccc(Cl)c3)c(=O)n2C)n1C (stereo unspecified),"inconclusive [inhibitor, full curve, poor fit]"
